Source: PMC4336329 (PLoS ONE, 2015)
The whole screen tested about 310,000 compounds, of which about 2,200 (0.71%) showed an effect of 50% or more. The effect is printed as a negative number. The list shows a part of the results.

target: human ether-à-go-go-related gene (hERG) potassium channel (human, UniProt Q12809); assay: primary screen, population patch clamp on CHO cells stably expressing hERG
Sequence (Q12809 whole entry, looked up): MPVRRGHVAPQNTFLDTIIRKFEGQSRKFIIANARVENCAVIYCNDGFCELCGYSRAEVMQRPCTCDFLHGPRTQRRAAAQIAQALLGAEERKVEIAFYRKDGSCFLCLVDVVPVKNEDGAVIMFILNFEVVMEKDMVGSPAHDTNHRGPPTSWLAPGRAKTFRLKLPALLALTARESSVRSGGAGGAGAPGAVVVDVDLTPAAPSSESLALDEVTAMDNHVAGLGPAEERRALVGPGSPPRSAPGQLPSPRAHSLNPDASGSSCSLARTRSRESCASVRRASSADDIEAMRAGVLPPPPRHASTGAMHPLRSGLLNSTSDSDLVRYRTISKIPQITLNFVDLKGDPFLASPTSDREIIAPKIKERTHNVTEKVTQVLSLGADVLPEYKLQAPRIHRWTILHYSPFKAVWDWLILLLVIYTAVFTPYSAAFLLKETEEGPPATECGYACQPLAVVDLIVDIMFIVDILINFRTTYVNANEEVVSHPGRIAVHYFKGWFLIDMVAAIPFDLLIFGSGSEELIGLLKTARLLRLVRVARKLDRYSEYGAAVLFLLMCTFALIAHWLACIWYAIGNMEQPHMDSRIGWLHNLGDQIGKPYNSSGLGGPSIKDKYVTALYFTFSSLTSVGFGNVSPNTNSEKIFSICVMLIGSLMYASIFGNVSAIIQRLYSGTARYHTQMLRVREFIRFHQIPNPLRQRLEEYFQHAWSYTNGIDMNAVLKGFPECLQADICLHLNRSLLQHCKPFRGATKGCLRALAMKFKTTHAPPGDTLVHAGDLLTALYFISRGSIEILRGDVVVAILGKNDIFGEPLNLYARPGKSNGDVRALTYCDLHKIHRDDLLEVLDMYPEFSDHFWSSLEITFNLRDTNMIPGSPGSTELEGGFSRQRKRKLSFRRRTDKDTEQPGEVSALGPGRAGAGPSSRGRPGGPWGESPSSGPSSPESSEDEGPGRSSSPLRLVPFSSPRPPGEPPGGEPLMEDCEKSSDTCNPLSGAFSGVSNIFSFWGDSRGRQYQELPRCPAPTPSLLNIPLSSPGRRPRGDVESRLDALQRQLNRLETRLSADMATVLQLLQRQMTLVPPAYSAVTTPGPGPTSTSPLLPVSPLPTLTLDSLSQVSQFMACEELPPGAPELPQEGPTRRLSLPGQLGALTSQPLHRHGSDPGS

Compound | hERG current change (%, negative = inhibition) at 1uM [%]
C=CCOc1cccc(C2C(C(=O)c3ccc(C)o3)=C(O)C(=O)N2c2nnc(C)s2)c1 (centres unmarked) | -0.371
COc1ccc(-c2nc3n(c(=O)c2C#N)CCS3)cc1 | 2.81
COC(=O)C1=C(C)OC(N)=C(C#N)C1c1ccc(OC)c(OC)c1OC (centres unmarked) | 4.62
O=C(CSc1nnc(C2CCCCC2)o1)N1CCCCC1 | 5.09
O=C(O)Cc1sc(-c2ccccc2)nc1-c1cccs1 | 5.31
Cc1ccc(N(CC(=O)NCc2ccccc2)C(=O)CCC(=O)Nc2ccccn2)cc1C | 8.4
CCOc1cccc(OCCOCCN(C)Cc2ccccc2)c1 | -6.68
COc1cccc(O)c1CN1CCC(n2nccc2NC(=O)c2ccc3c(c2)OCO3)CC1 | 5.08
CC(=O)c1sc2nc(-c3cccs3)cc(C(F)(F)F)c2c1N | 11.6
Cl.NC(c1ccccc1)c1ccncc1 (centres unmarked) | 15.2
Cc1cn2c(=O)c(C(=O)N3CCN(c4ccccc4F)CC3)cnc2s1 | 3.8
CCCn1c(C)cc(/C=C(\C#N)C(=O)OCC(=O)Nc2ccc(OC)c(Cl)c2)c1C | 5.72
CCCC(=O)Nc1ccc(C(=O)NCCc2ccc(F)cc2)cc1 | 23
CC(C)NC(=O)/C(=C/c1ccco1)c1ccccc1 | 3.25
CCCCN1C(=O)C(=O)N(CC(=O)c2ccc3c(c2)OCO3)C1=O | 3.01
Cc1nc2scc(C)n2c(=O)c1S(=O)(=O)NCc1ccccc1Cl | 14.3
CCc1ccc2c(c1)c(N=NC1=NC(=O)CS1)c(O)n2CC | 7.81
CSc1nnc(C(C)c2ncc(C(F)(F)F)cc2Cl)n1C (centres unmarked) | 6.41
Cc1c(C(=O)N2CCCC2)c(S(=O)(=O)N2CCN(c3ccccc3F)CC2)c(C)n1C | 6.82
O=C1[C@H]2[C@@H](C3CC3)N3C(=O)CN(Cc4ccccn4)C(=O)[C@@]3(Cc3ccccc3)[C@H]2C(=O)N1c1ccccc1 | 8.26
COC(=O)C1=Nc2ccccc2/C1=C\c1c(O)n(C)c(=O)n(C)c1=O | 16.1
Cc1onc(-c2ccccc2)c1C(=O)Nc1ccc2c(c1)OCO2 | 6.81

Compound | hERG current change (%, negative = inhibition) at 1uM [%]
O=C(CNC(=O)c1ccc(Cl)cc1)Nc1ccc(S(=O)(=O)Nc2ncccn2)cc1 | 7.99
CN(Cc1cc(=O)n2ccsc2n1)c1ccccc1 | 4.71
Cc1ccc(-c2cc(C(=O)OCC(=O)Nc3cc(C)on3)c3ccccc3n2)c(C)c1 | 12.5
Cc1cccn2c(=O)c(/C=C(\C#N)C(=O)NC3CCS(=O)(=O)C3)c(N3CC(C)OC(C)C3)nc12 (centres unmarked) | 15.5
CCc1ccc(N2CC(C(=O)Nc3ccc(S(=O)(=O)N4CCOCC4)cc3)CC2=O)cc1 (centres unmarked) | 8.69
O=C(NC1CCCCC1)c1cc(-c2ccccc2O)on1 | 10.8
CCN(CC(=O)N1CCC(C)CC1)S(=O)(=O)c1ccc(C)cc1 | -9.4
CCCC(=O)O[C@]1(C(=O)CCl)[C@@H](C)C[C@H]2[C@@H]3CCC4=CC(=O)C=C[C@]4(C)[C@@]3(F)C(=O)C[C@@]21C | 1.36
O=C(OCCCN=C1NS(=O)(=O)c2ccccc21)c1ccccc1 | 8.41
CC(C)CN(C(=O)Cn1c(Cl)nc2c1c(=O)n(C)c(=O)n2C)C1CCS(=O)(=O)C1 (centres unmarked) | -7.41
CCc1nnc(NC(=O)CSc2nc3c(c(=O)n2-c2ccccc2OC)SCC3)s1 | 12.5
Cc1cccc(OCCn2c(-c3ccco3)nc3ccccc32)c1 | 28.5
CCCNC(=O)c1cccc(NC(=O)C(C)C)c1 | -6.34
NC1=NN=C(N2N=C(c3ccccc3)CC2(O)C(F)(F)F)n2ncnc2C1 (centres unmarked) | 10.8
Cc1ccccc1NC(=O)CCc1c(C)nn(-c2ccc(N3CCCCC3)nn2)c1C | 0.987
CC1(C)CC(=O)C2=C(C1)OC1=C(C2)C(=O)CC(C)(C)C1 | 9.08
Clc1ccc(CSc2ncn[nH]2)cc1 | 0.531
Cc1ccccc1C(=O)c1cccn1CC(=O)NCCCN1CC(C)CC(C)C1 (centres unmarked) | -59
Cc1ccc(-c2nc3ccccc3c(=O)n2CCCn2ccnc2)cc1 | -16.2
CCC(NS(=O)(=O)c1ccc(OC)cc1)C(=O)O (centres unmarked) | -4.23
CCOC(=O)Cn1c(CCC(=O)O)ccc1-c1ccc(F)cc1 | 12.6
Cc1ccnc(NC(=O)CS(=O)(=O)Cc2ccccc2)c1 | 6.54
